In PubChem BioAssay AID1814 (Broad Institute, 2009):
The campaign covered roughly 300,000 compounds. About 22,000 (7.3%) were called active. Inconclusive results, whose numbers are uncertain, are shown with a selection of clear calls. Cut-off read from the data, not from the text of the source: active = activity score below about -60%; inconclusive = mostly about -28% to -61%; inactive = positive scores.

Assay: Activators via SNCA 5'UTR binding, MLPCN (AID 1814)
Conditions: alpha-synuclein 5'UTR reporter, activators screen; hits give low values; tested at 7.5 µM
For `CC(=O)N1CCn2c3ccc(C)cc3c3cccc1c32`, the activity score was active: -83.4%. In the case of `CSc1nnc(NC(=O)c2cc3ccccc3oc2=O)s1`, the activity score is reported as inconclusive: -53.6%. For `COc1cccc(Cn2c(NCc3cccnc3)nc3c2c(=O)n(C)c(=O)n3C)c1`, the activity score was inactive: 71.3%. In the case of `O=C(CNC(=S)NC(=O)c1ccc(Br)o1)c1ccccc1`, the activity score is reported as inconclusive: -39.7%. With `O=S1(=O)CCOC[C@H](c2ccccc2)N1Cc1ccccc1` the activity score was inconclusive: -54.7%. With `CN(c1ccc(OC(=O)CN2C(=O)NC3(CCCC3)C2=O)cc1)S(=O)(=O)c1ccccc1` the activity score was inconclusive: -47.9%. For `CNC(=O)c1cc2c(ccc3ccccc32)oc1=N`, the activity score was inconclusive: -42.2%. For `CCc1ccc(OCCCCCn2ccnc2)cc1`, the activity score was active: -66.4%. In the case of `N#CCCCSc1nnc(-c2ccccn2)o1`, the activity score is reported as inconclusive: -61.4%. In the case of `COc1ccc(CCn2c(=N)c(C(=O)NC3CCCC3)cc3c(=O)n4ccccc4nc32)cc1OC`, the activity score is reported as active: -61.9%. In the case of `COc1ccc(-c2onc3ccc(Cl)cc23)cc1`, the activity score is reported as inconclusive: -60.1%. In the case of `O=C(c1cc(COc2ccc3ncccc3c2)on1)N1CCC(O)CC1`, the activity score is reported as inconclusive: -53.1%. With `CS(=O)(=O)c1ccc(C(=O)Nc2cccc(-c3nc4ccccc4[nH]3)c2)cc1` the activity score was inconclusive: -39.1%. For `CC(C)OC(=O)CSc1nnnn1-c1ccc2c(c1)OCCO2`, the activity score was inconclusive: -54.2%. In the case of `O=C(NC(=S)NCc1cccnc1)c1cccc2ccccc12`, the activity score is reported as inconclusive: -49.3%. For `CN(C)c1ccc(/C=C/C(=O)c2cccc(Br)c2)cc1`, the activity score was inconclusive: -46.4%. With `CN(C)c1ccc(/C=C/C(=O)c2ccc(O)cc2)cc1[N+](=O)[O-]` the activity score was active: -203%. With `COc1cc2c(cc1NC(=O)C(C)NCc1ccccc1)oc1ccccc12` (stereo unspecified) the activity score was inconclusive: -51.6%. For `CCOc1ccc(C(C(=O)NC2CCCC2)N(CCCO)C(=O)c2ccc(-c3ccccc3)[nH]2)cc1` (stereo unspecified), the activity score was inconclusive: -50.9%. For `Oc1cccc(/C=N/N2CCCCC2)c1O`, the activity score was inconclusive: -60.3%. For `c1ccc(Cn2nc(-c3ccccc3)nc2-c2ccccc2)cc1`, the activity score was inconclusive: -51.8%. With `O=C(NCCCN1CCCC1)c1cc2c(Cl)nc3ccccc3c2s1` the activity score was inconclusive: -53.1%. With `COC(=O)c1ccc(COc2ccccc2/C=N/NS(=O)(=O)c2ccccc2)cc1` the activity score was inconclusive: -41%. In the case of `Cc1cccc(NC(=O)c2sc(C)nc2C)c1`, the activity score is reported as inconclusive: -57.8%. For `O=C(COc1ccc(Br)cc1Br)NNC(=O)c1cccs1`, the activity score was inconclusive: -57%. For `COC(=O)Cc1ccc2oc(-c3cccnc3)nc2c1`, the activity score was active: -63.5%. With `Cn1ccnc1C(=O)C1CCCN(Cc2cn[nH]c2-c2ccc(-c3ccccc3)cc2)C1` (stereo unspecified) the activity score was inconclusive: -39.3%. With `NNC(=O)CN1CCCc2ccccc21` the activity score was inconclusive: -54.8%. With `O=C(NCc1ccco1)c1noc2c1CCCC2` the activity score was inconclusive: -42.6%. For `O=C(CSCc1ccc(Cl)cc1)N1CCCCC1`, the activity score was active: -102%. In the case of `CCc1nnc(NC(=O)c2ccc(S(=O)(=O)N(C)Cc3ccccc3)cc2)o1`, the activity score is reported as inactive: 62.9%. In the case of `CCC(=O)Nc1cccc(-n2nnnc2SCC(=O)N2CCCCC2)c1`, the activity score is reported as inconclusive: -49.1%. With `COc1ccccc1C1CC(c2cccs2)=Nc2ccccc2S1` (stereo unspecified) the activity score was inconclusive: -46.2%. In the case of `Brc1ccc(N=Nc2ccc3ccccc3n2)cc1`, the activity score is reported as inactive: 94.5%. With `COc1ccc(-n2c(SC(C)C(=O)Nc3ncc(Cl)cc3Cl)nc3ccccc32)cc1` (stereo unspecified) the activity score was inactive: 76.6%. With `Cc1cc(C)nc(NC(=S)Nc2cccc(F)c2)c1` the activity score was inconclusive: -59%. With `Cc1cc(C)n(S(=O)(=O)/C=C/c2ccccc2)n1` the activity score was inconclusive: -55.5%. For `CC(=O)c1ccc(NC(=O)c2noc(C)c2[N+](=O)[O-])cc1`, the activity score was inconclusive: -40.3%. For `COc1ccc(C(=O)Nc2cccc(C(C)=O)c2)c(OC)c1OC`, the activity score was inconclusive: -61.2%. With `Cc1ccc(CC(=O)NCC2CCCCC2)cc1` the activity score was inconclusive: -58.6%. In the case of `COc1cc(/C=C2\C(=N)N3N=C(S(C)(=O)=O)SC3=NC2=O)ccc1OCCOc1ccc(C)cc1`, the activity score is reported as inconclusive: -45.6%. With `O=C(CCSc1ccc(Cl)cc1)N1CCN(c2ncccn2)CC1` the activity score was active: -103%. For `Cc1nc2ccc(NC(=S)NCc3ccccc3)cc2nc1C`, the activity score was active: -80.3%. In the case of `CC(=O)c1cccc(Nc2c3c(nc4ccccc24)CCC3)c1`, the activity score is reported as inactive: 75.5%. With `O=C(Nc1cc2nn(-c3ccccc3)nc2cc1Cl)c1ccco1` the activity score was active: -129%. For `COc1ccccc1OCc1ccc(C(=O)N2CCCCC2)o1`, the activity score was inconclusive: -45.9%. In the case of `O=C(CSC1=NCCS1)N1CCOCC1`, the activity score is reported as inconclusive: -26.3%. For `CCN(CC)CCNC(=O)c1c(O)c2c([nH]c1=O)CCCC2`, the activity score was inconclusive: -41%. In the case of `CC(C)Oc1ccc(C2C(C(=O)c3ccco3)=C(O)C(=O)N2Cc2cccnc2)cc1` (stereo unspecified), the activity score is reported as inconclusive: -59.4%. For `CCC1=Nc2cc(C(=O)NCCCOC)ccc2Sc2ccccc21`, the activity score was inactive: 73.5%. For `COc1ccc(-n2ncc3c(N(C)C4CCCCC4)ncnc32)cc1`, the activity score was inactive: 94%. For `CCN1CCN(C(=O)c2ccc3c(=O)n(CCC4=CCCCC4)c(=O)[nH]c3c2)CC1`, the activity score was inconclusive: -40.6%. For `c1ccc2c(c1)nc(N1CCOCC1)c1nnnn12`, the activity score was inconclusive: -57.7%. For `COc1ccc(C)cc1NC(=O)c1cc2c(s1)CCC2`, the activity score was active: -143%. In the case of `CCCCCCCCCCn1c2c(c(=N)c3c1CCC3)CCC2`, the activity score is reported as inactive: 71.2%. With `Cc1ccccc1C(=O)N/N=C/c1ccsc1C` the activity score was active: -148%. For `C/C(=N\NC(=O)C(C)Oc1ccc([N+](=O)[O-])cc1)c1ccccn1` (stereo unspecified), the activity score was inactive: 72.3%. In the case of `O=C(Oc1ccccc1N1C(=O)C2CC=CCC2C1=O)c1ccc(Br)cc1` (stereo unspecified), the activity score is reported as inconclusive: -59.3%. With `O=Nc1c(O)[nH]c2ccc(Cl)cc12` the activity score was inconclusive: -52.1%. In the case of `Brc1ccc(C2=CC(c3ccco3)n3nnnc3N2)cc1` (stereo unspecified), the activity score is reported as inconclusive: -57.5%. With `COc1ccc(Nc2cc(C)nc(-n3nc(C)cc3C)n2)cc1` the activity score was inactive: 92.8%.
